Laboratory results from the supplement of paper PMC11417369.
± gives the standard deviation of the averaged measurements. This is one part of the list.

Test system: PfAP2-LT AP2 domain (GST-tagged)
Assay: gcPBM binding intensity (ln(normalized median fluorescence intensity)); higher = stronger DNA binding
How it was run: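 An Agilent 4 × 180k array of primer-extended double-stranded 36-bp intergenic genomic probes, with negative controls, was incubated for 1 h with GST-tagged P. falciparum DNA-binding domains expressed in E. coli. Alexa488 anti-GST antibody detected bound protein, scanned at 488 nm. Binding intensity is the highest Masliner-normalised natural-log median intensity across replicate spots of either probe orientation.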

Row | Sequence | gcPBM binding intensity (ln)
1 | TTAATAGTGGAAATATGTACATAATTTTGGTCTTTT [XGTACX_site1664] | 8.73 ± 0.4
2 | TTGAAAAATCAGCACACACACAAATACATACATATT [CACACA_site7505] | 9.7 ± 0.33
3 | CTAAAAAAATAATAAAGTACACAAACGAATATATAA [XGTACX_site668] | 8.96 ± 0.4
4 | ACATATGGCACATATGTACACACGTATAGATAATAT [CACACA_site2024] | 9.3 ± 0.5
5 | TTTTTTTTTTTTTTTGCACACTATATTTAATATAAG [CACACA_site2444] | 8.77 ± 0.46
6 | CTTTTTTGGTACATCACACATTTTTACATTCCCTTT [CACACA_site4957] | 9.02 ± 0.52
7 | CCACTATATAAAATCACACATTTATATTATACATAT [CACACA_site4570] | 8.9 ± 0.46
8 | ATAGATGCATATTATACACACATATGTAAATACATT [CACACA_site4691] | 9.29 ± 0.4
9 | TATTGGTAATGTAAATGTACATATAGATATTTACAT [XGTACX_site1922] | 8.69 ± 0.33
10 | TTTATTTTAATTTATTGTACATTGTTATCAAGTGCA [XGTACX_site1110] | 8.51 ± 0.49
11 | TTGAAGTTAATAAAAACTTTATACATGAAATTATTT [CACACA_negctrl_site684] | 8.36 ± 0.47
12 | AAAAAAAGAAATTAGGTGCATAGCATTAACCGATAA [GTGCAC_site9582] | 8.81 ± 0.51
13 | ATAATAGTTAAATGTACACACTAACTACATGGAATA [CACACA_site5753] | 8.98 ± 0.31
14 | GATTCCTTTAACCCTGCACACATACATACATTTATA [CACACA_site9308] | 9.34 ± 0.35
15 | TAATAATATAATAATACACACTCATTATATATATAA [CACACA_site6045] | 8.71 ± 0.43
16 | TATATTTCTTATTACATACACACATATACATATATG [CACACA_site3202] | 9.14 ± 0.45
17 | CCATTCAAATTTCGCACACACATACAAAAAAAAAAA [CACACA_site3093] | 9.39 ± 0.42
18 | TATAAATGATTAATTTGTACATATTTTACTTAATTG [XGTACX_site5271] | 8.56 ± 0.51
19 | TTGATGATATCATTTTGTACTTATACGTATTTAAAA [XGTACX_site148] | 8.59 ± 0.44
20 | TAAATAAATAAATATATATATATATATATATATATA [XGTACX_negctrl_site70] | 9.28 ± 0.53
21 | ACAAAAAAAAAAAAAATACACACACATAAAAAAAAA [TGCATGCA_negctrl_site333] | 9.32 ± 0.35
22 | ACAAAATATTTTTCTTCACACATCCATTCAACATTT [CACACA_site5886] | 8.89 ± 0.43
23 | AATCAAAACATTAAAAAGAAAAAATATATATATATA [CACACA_negctrl_site366] | 9.13 ± 0.13

Row | Sequence | gcPBM binding intensity (ln)
24 | TATATATATATATATATTAATAATTAATATAAAAGA [XGTACX_negctrl_site32] | 8.72 ± 0.38
25 | TACATATTTTTCTTTTCACACATGGAAAAAAAAGGT [CACACA_site5146] | 8.62 ± 0.45
26 | ATATATATATATATATATATATATATATATAAGTGG [XGTACX_negctrl_site90] | 9.78 ± 0.19
27 | TATTAATTCATTTTTTTTTTTTTTTTTTTTTTTTTT [CACACA_negctrl_site1215] | 8.47 ± 0.38
28 | AATATATTTATTATAACACACACATATATATATTAT [CACACA_site8264] | 9.29 ± 0.42
29 | TATTTTTTTTTTCACTGTACATACAACAACAAATAT [XGTACX_site8835] | 8.52 ± 0.52
30 | CCCTTAATTTAAAACACACAAACAAATAAGTTAGTT [CACACA_site3793] | 8.78 ± 0.36
31 | GATTTAATAGATACGAGTACAGAAATTGTATACATA [XGTACX_site7563] | 8.82 ± 0.4
32 | ACACAAAAAATTAAGTGTACTCATCAAGAAAAAAAA [XGTACX_site3456] | 8.84 ± 0.53
33 | TATATATTTTTTTCATGTACATATAAATTAATTAAA [XGTACX_site8680] | 8.31 ± 0.35
34 | ATAAAATACCCTGATCTATTACATATTATATTCTGC [GTGCAC_negctrl_site311] | 8.82 ± 0.47
35 | TTATATGTTTTGTGTACACAATTTATTAAATTAATA [CACACA_site5645] | 8.76 ± 0.45
36 | ATAGGAAAAAGTATTGGTACACATACATATACGTTA [XGTACX_site5819] | 8.86 ± 0.4
37 | CAAACAATTAAACAAACACACATATACATGTATATA [CACACA_site2060] | 9.06 ± 0.45
38 | AAAATAAGCCATATACGTACATACATATATAAATAT [XGTACX_site4197] | 8.94 ± 0.34
39 | TAATTACACTTTAAAAGTACATATATAATAACATTA [XGTACX_site379] | 8.49 ± 0.4
40 | TTTTTTATGTTCAATTGTACATATACATATATATAT [XGTACX_site6013] | 9.12 ± 0.52
41 | TTCATATTTCATATATGTACTTATGTTCAATATAGT [XGTACX_site3811] | 8.78 ± 0.48
42 | TTTTTTGACATTCCTTTTAATAATTAACGAAAGGCA [GTGCAC_negctrl_site377] | 8.22 ± 0.33
43 | CTTAAAATGATAATATGTACACATAAATAATATATA [XGTACX_site8330] | 8.79 ± 0.38
44 | TAAGTTTGTCAATCAACACACACCTATTTATTATAT [CACACA_site3919] | 9.11 ± 0.35
45 | CACTTTAATTTATGCACACATATGGAACAACAGCCA [CACACA_site994] | 9.05 ± 0.41
46 | TATAATCAATGCCAAAGTACATATTAATATATTTAT [XGTACX_site4558] | 8.68 ± 0.47

Row | Sequence | gcPBM binding intensity (ln)
47 | AATATATCGCATAGTTGTACAGAATTTTTACTTTTA [XGTACX_site8192] | 8.74 ± 0.37
48 | ATTGAAAAATAAAAATGTACACATGTAGCATACCAT [XGTACX_site3275] | 8.97 ± 0.49
49 | TATATAATATTACGTTGTACACTTTAATCTCCCTTC [XGTACX_site5577] | 8.95 ± 0.57
50 | ACCATTTGAAAATTCACACACTTTATTTTGTTATAT [CACACA_site5976] | 9.18 ± 0.39
51 | ACTAATATGCAATATTGTACATATATATAGAAATAT [XGTACX_site5273] | 8.81 ± 0.52
52 | AAATGTATACACATGGTGCGTAATATATTATATATA [GTGCAC_site9877] | 8.97 ± 0.42
53 | CTACCAAATCTATAGACACACATATATATATATATT [CACACA_site2486] | 9.32 ± 0.24
54 | GAACTAATAATGAAAAGTACACATACACATATATAT [XGTACX_site6789] | 9.05 ± 0.52
55 | AAAGATATTTTTATCTCACACATATAATATATATAT [CACACA_site5478] | 8.79 ± 0.38
56 | TAAAATTTAAGTTATACACACTTAAGTAACATCATC [CACACA_site6395] | 8.71 ± 0.43
57 | TATAGAAAATTTATATGTACATATATATATATATAT [XGTACX_site4451] | 9.29 ± 0.33
58 | TATTTACAGACATGCGCACACATAAATAAATAATAG [CACACA_site2411] | 9.3 ± 0.43
59 | GTTACTGCATACATAACACACATATTCAAAACACAT [CACACA_site3502] | 9.2 ± 0.25
60 | GCATATGTATATAATGTGCACATGGATTATATAAAA | 9.16 ± 0.52
61 | TTTATATAATAGTTATGTACTTAAACGAAAGATACA [XGTACX_site8495] | 8.39 ± 0.41
62 | AAATACAAGGGACATGCATACCACTATTTTTTAAAT [TGCATGCA_site588] | 8.8 ± 0.46
63 | ATAACATACATAACAACACACAATATTTATCTGTAT [CACACA_site4279] | 9.44 ± 0.29
64 | TTCTTCTGTTTTATTACACACCATTTTGTGTCTACA [CACACA_site8643] | 9.62 ± 0.71
65 | CTCTATATATTATTATGTACTAAATGTATGTATGTA [XGTACX_site7151] | 8.86 ± 0.41
66 | TAACACACTAAGAAAAGTACTGATTAATATAATTTT [XGTACX_site5536] | 8.76 ± 0.49
67 | ATGAATGAATAAAGAAGTACGGAAATATTAACAAAA [XGTACX_site4695] | 8.87 ± 0.48
68 | AAAACACAATTTATTACACACATATATTATATATTA [CACACA_site1420] | 8.9 ± 0.4
69 | TATGATTTTTATATATGTACGTATGGTGTTTTACAA [XGTACX_site6100] | 8.76 ± 0.41

Row | Sequence | gcPBM binding intensity (ln)
70 | TACGCCTATAACGGCTGTACACCTTACTTTTTTTAA [XGTACX_site6818] | 8.78 ± 0.37
71 | AATAAATTTCAAAATTGTACTCATTTCCTTTCCCAA [XGTACX_site5887] | 8.39 ± 0.51
72 | TGTGAAATAAAATTTGTACACACATATATATATATA [CACACA_site8093] | 9.45 ± 0.18
73 | ATATATAATTCCCAAGTGCATTTATTTTAATTATTA | 8.59 ± 0.43
74 | TTCATTCAAATCCAAGCATGCTTTATTAAAAAATTA [TGCATGCA_site567] | 8.27 ± 0.42
75 | ATAAAATTTTATATGGGTACATAATATAATATATAT [XGTACX_site8160] | 8.67 ± 0.47
76 | ATATATATATATATATGTACACATATATTTCTTTTC [XGTACX_site3443] | 9.745 ± 0.0071
77 | AAATGATATAAATTATAAAATGGATTTTTTCCATTG [CACACA_negctrl_site420] | 8.3 ± 0.42
78 | TTTAAAAATTAATTCTGTACACATTTTTATTATATT [XGTACX_site4212] | 8.8 ± 0.47
79 | TTTATGAAATGTTGCACACAAAAAACAACATGTTTT [CACACA_site1440] | 8.87 ± 0.38
80 | ATTCCTGGACCGTTCATGCACTTGCAGAACGTCCAT | 8.84 ± 0.4
81 | AAAAAAAAAAAAAGTGCACACGATTTAAGGCCTATA [CACACA_site2823] | 8.98 ± 0.4
82 | CATATTATTTAAACATGTACTCACATATAAATATAA [XGTACX_site6096] | 8.59 ± 0.53
83 | ATGAGTATACTAAGAACACACAAGTTACTTGGTGTT [CACACA_site4981] | 9.03 ± 0.49
84 | TATAACAAGTAATGTTGTACATTATATTATGTAATA [XGTACX_site2769] | 8.71 ± 0.49
85 | TTTTTTATTATTATGTGTACGAATATGTGCATATAA [XGTACX_site1364] | 8.69 ± 0.47
86 | TAAAAAAAAAAAATGTGTACATATTATATATATCTT [XGTACX_site2615] | 8.52 ± 0.45
87 | TTTTTTCTCTATATATGTACATATAAAAAATATATC [XGTACX_site6382] | 8.45 ± 0.5
88 | GTTACACAAACAAACACACACACACGCACGCACAAA [CACACA_site7191] | 10 ± 0.2
89 | TTCTTTATTTTTTCTACACACATTAGATATTCAAAG [CACACA_site7624] | 8.98 ± 0.4
